Assay results reported in the RNAGym collection of RNA variant scans (doi:10.1073/pnas.2313332121).
Variants at the floor of the assay are shown more often than the library holds them.

B1: TPR 5TU (parent)
chain: GGAUCUUCUCGAUCUAACAAAAAAGACAAAUCUGCCACAAAGCUUGAGAGCAUCUUCGGAUGCAGAGGCGGCAGCCUUCGGUGGCGCGAUAGCGCCAACGUUCUCAACUAUGACACGCAAAACGCGUGCUCCGUUGAAUGGAGUUUAUCAUG

Variants of: B1
Assay: polymerase ribozyme fitness, log enrichment relative to wild type (log ratio); higher = more active; in vitro selection for triplet polymerase activity
Procedure, shortened: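 The heterodimeric triplet polymerase ribozyme's subunits were each mutagenized into PCR-built libraries and transcribed. Every library was selected once, in triplicate, by annealing with a biotinylated primer, the partner subunit and triplets, incubating frozen at −7 °C, gel-excising extended constructs, capturing on streptavidin beads and running RT-PCR. Input and output libraries were Illumina-sequenced, with genotypes kept only at ≥10 input reads and ≥1 read per output. Fitness, from inverse-variance-weighted replicate averages, is the base-2 logarithm of genotype enrichment over wild-type enrichment.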

| Variant | polymerase ribozyme fitness (log ratio) |
| --- | --- |
| A52G C93G A115G A119C G140C | ≤ -4.2 |
| A52G C79A G86U C123U C129A | ≤ -4.2 |
| U53C A66C G83C A97G C108A A119U G140U U144C | ≤ -4.2 |
| A52C G88U A89U | ≤ -4.2 |
| U53A G88C A91G G133U G136A | ≤ -4.2 |
| U53A G86C G136C | ≤ -4.2 |
| A52C C95U A115G G126C G141A | ≤ -4.2 |
| A52G G58C G68A C76A C85U U90G G117U | ≤ -4.2 |
| A52U U56A A66U C93A C123G G143A U146A | ≤ -4.2 |
| A52G G67U A142G | -3.52 |
| C54U C75G G80C U82A C87U C99G | ≤ -4.2 |
| C54G U104G U144A | ≤ -4.2 |
| U53A C57U G143C | -3.52 |
| U53A C85U C87A C95U G143A | ≤ -4.2 |
| A52C G84A G100A A147G | ≤ -4.2 |
| C54G C57U G74A C87U A98G | ≤ -4.2 |
| U53A A66C U127G | ≤ -4.2 |
| A52G C96U A122U | -0.85 |
| C51U U78G C96U | ≤ -4.2 |
| C54U A91C | ≤ -4.2 |
| C54A C72U C93A | ≤ -4.2 |
| U53A C57U C87G G124A G143C | ≤ -4.2 |
| A52G G94A G141C U148A | ≤ -4.2 |
| C54A C69U U144C | -3.51 |

| Variant | polymerase ribozyme fitness (log ratio) |
| --- | --- |
| C54G G94A C116A C149U | ≤ -4.2 |
| A52C U55A G59U | 0.0736 |
| C54U C85A C125G U144C | ≤ -4.2 |
| U53A U55C U77A U90A C93U G141C | ≤ -4.2 |
| A52U C85U C95G G124U U135A | ≤ -4.2 |
| U53A C132U U146G | -3.87 |
| A52G G84U U144G | -1.56 |
| U53A A73G C85U G141A | ≤ -4.2 |
| U53A G81C C95U A107G U134C U139A | ≤ -4.2 |
| U53A G83C G94U A97G U101G U102G C116A G140U | ≤ -4.2 |
| U53A A64G G88A | ≤ -4.2 |
| A52C G86U C87U A113U G141C U148G | ≤ -4.2 |
| U53A C87A G94A | ≤ -4.2 |
| A52G A60G C75U G88U G92A C95U C116U | ≤ -4.2 |
| A52C C57U G58C C93G | ≤ -4.2 |
| A52C A73U A89G G126A | ≤ -4.2 |
| A52C C69A C72G C85G | ≤ -4.2 |
| A52G C108U | -2.1 |
| A52G G86U C96G U144C U151C | ≤ -4.2 |
| A52C G83U | -2.01 |
| C54A U56A C93U A120G G126U | -2.38 |
| A52U A64G A97U | ≤ -4.2 |
| U53G G94C A115U | -3.49 |
| A52U G65C C75A C95U A115G | ≤ -4.2 |

| Variant | polymerase ribozyme fitness (log ratio) |
| --- | --- |
| A52C G58A C93A C118U | -3.55 |
| A52G G58U A110G G143U | ≤ -4.2 |
| U53A C72A U78G U146G | ≤ -4.2 |
| A52G U56A | -0.876 |
| A52U G88C C96G | ≤ -4.2 |
| C54G A60G G81A C93G C118U | ≤ -4.2 |
| A52G C54U U61G G74U C108U C131U | ≤ -4.2 |
| A52C G81A C85U C99A U151G | ≤ -4.2 |
| A52U U78C U102C | -2.88 |
| C54U C93G C96A C116A U139A | ≤ -4.2 |
| A52G A64U G81A G86C G92A A122C G143C | ≤ -4.2 |
| A52G G83U U134A G140U | ≤ -4.2 |
| U53A U56A G70U C93U G141C | ≤ -4.2 |
| A52C A91U | ≤ -4.2 |
| U53A C118G | -2.5 |
| U53A C79A C87G | ≤ -4.2 |
| U53A U77G A97U | ≤ -4.2 |
| U53A C72G G128U | ≤ -4.2 |
| U53C C69U C75A C93U A115C | ≤ -4.2 |
| C54U C85G U127A U134G G141U | ≤ -4.2 |
| C54G A60U U77A G141U | ≤ -4.2 |
| A52U G81A C87A A97U U104G G126C U134G G136C | ≤ -4.2 |
| C54A U61A C69U C125A | ≤ -4.2 |
| C54U C72G A119U | ≤ -4.2 |

| Variant | polymerase ribozyme fitness (log ratio) |
| --- | --- |
| C54G G58A G88C C99U | ≤ -4.2 |
| A52U G83A | -2.83 |
| C54A C95G G128C | ≤ -4.2 |
| U53G C96A U104G | -3.96 |
| A52G C79G C118U A142U | ≤ -4.2 |
| C54A G62A G80U A142U | ≤ -4.2 |
| C54A G58C G80U G92A G112C | ≤ -4.2 |
| C54G U56A G71A G94A U101A U102A C108U C116G C125U A138C | ≤ -4.2 |
| U53A U135A | -1.55 |
| A52G G81A G83A A98U | -1.22 |
| U53A C93G A119C | ≤ -4.2 |
| U53G G71C G86A G143U | ≤ -4.2 |
| U53A U55A G84C C93A C95U | ≤ -4.2 |
| C54U C85A G128A U144G | ≤ -4.2 |
| A52G U56G A60C C85G G143U | ≤ -4.2 |
| U53A G71U G86U C93A A97C C116G U151A G152U | ≤ -4.2 |
| U53A C79U G83A C87U | ≤ -4.2 |
| U53A G92C A115C C116A | ≤ -4.2 |
| A52C G92U G152U | -3.32 |
| A52C C93G C99A C118G | ≤ -4.2 |
| U53G C87U A120C | -2.07 |
| U53A G58U C95A U144A C149A | ≤ -4.2 |
| A52U C75G A98G U102C | ≤ -4.2 |
| U53G C54A C95U U104C A106U C118U C149G | ≤ -4.2 |

| Variant | polymerase ribozyme fitness (log ratio) |
| --- | --- |
| U53A C69U A89G G94U C96U A115U U148G U151G | ≤ -4.2 |
| U53G G58A C69A G92A C108G | ≤ -4.2 |
| U53G C95U | -3.07 |
| A52U C75U A147U | -2.82 |
| U53A C76A G92A A122U | ≤ -4.2 |
| A52G G68A G88C C96A C108A U148C | ≤ -4.2 |
| C54U C85G A89U C116A G141C | ≤ -4.2 |
| A52C G71A A91U C93A C96G C132A | ≤ -4.2 |
| A52C C87G | ≤ -4.2 |
| A52U U82G G84U G86A G124U U134C | ≤ -4.2 |
| A52C G65U A89U C95U C149U | ≤ -4.2 |
| A52C U53A C87G A138C | ≤ -4.2 |
| U53G C96G U144C | -3.23 |
| C54U C79G C96U G143A | ≤ -4.2 |
| U53A C63U C79G C87A C95A U101G | ≤ -4.2 |
| A52C A60C C93A | ≤ -4.2 |
| C54G U90C A98G C105U U111A | ≤ -4.2 |
| U53A C85A C96A A137G | ≤ -4.2 |
| C54G C116U | -1.08 |
| A52G G84U | -1.32 |
| A52G G88U | ≤ -4.2 |
| C54A A91G | -3.97 |
| C54U C76A | -0.561 |
| C54U C93G | -3.72 |

| Variant | polymerase ribozyme fitness (log ratio) |
| --- | --- |
| A52G U55A U90G C96U C103A | ≤ -4.2 |
| U53A C87G G141C | ≤ -4.2 |
| A52C C103A A113U A142U A150G | ≤ -4.2 |
| U53G G59A C75A C85A U148A | ≤ -4.2 |
| C54A A91U C95A C105G U127A U148C | ≤ -4.2 |
| C54U C85A G133A G140C | ≤ -4.2 |
| A52U G59C A91U | ≤ -4.2 |
| C54A C57U G58C C75A C85A A119C C132A | ≤ -4.2 |
| C54A C105U | -0.396 |
| C54G C79U G94C C96U A150G | ≤ -4.2 |
| C54A A66C G92U U104G C108G G124A C131A | ≤ -4.2 |
| A52G G68U A91U C125A | ≤ -4.2 |
| U53C G94C A98C U148G | ≤ -4.2 |
| C54A G67A G70C C72G A73C G74A C75G C87G C116G | ≤ -4.2 |
| C54G C103G | ≤ -4.2 |
| C54U A64G G80A A89G G94A A110U U135G | ≤ -4.2 |
| U53A A60C U90C C93U A147C | ≤ -4.2 |
| U53A C63U C99G | -3.81 |
| C54A C69G G84U U101A | ≤ -4.2 |
| U53A C57U A97G | -1.24 |
| U53A A91U G140A A147G | ≤ -4.2 |
| A52C U61A C76U C93U A97G C149A | ≤ -4.2 |
| C54G U56A C96G U102C G136A U144G | -3.08 |
| C54A A66G A91G C95G G141A G143U U146C | ≤ -4.2 |

| Variant | polymerase ribozyme fitness (log ratio) |
| --- | --- |
| U53A C93A C105A A119G | ≤ -4.2 |
| U53A A91U | ≤ -4.2 |
| C54A U90C G94U | ≤ -4.2 |
| U53A G83A C118A | -1.88 |
| C54U C87G A142C | ≤ -4.2 |
| U53A C69G G86U C114G | ≤ -4.2 |
| U53G G74A C99G | ≤ -4.2 |
| A52C G92A C93A U144C U148A | ≤ -4.2 |
| U53A A60G A113G U127C | ≤ -4.2 |
| A52G G86A | -0.796 |
| A52U A122G | -3.43 |
| A52C G80C A89G G126U | ≤ -4.2 |
| C54G G86A A120U | -2.8 |
| U53A C75U C85U C123U C125A | -2.32 |
| C54G A106G A137U | ≤ -4.2 |
| C54U A64U C96A | ≤ -4.2 |
| C54G G140A U146A | ≤ -4.2 |
| C54A G88U A89C | ≤ -4.2 |
| A52G G58C A107U G117C | ≤ -4.2 |
| A52G A73C C87A C114A | ≤ -4.2 |
| U53G C96U C114U A120C A147U | -3.11 |
| U53G U77C U102G A107U C118G | ≤ -4.2 |
| C54A U56A G70A A97U C105A A106C A107G A122G | ≤ -4.2 |
